# Measured values from PMC6919601, “Identification of Plasmodium dipeptidyl aminopeptidase allosteric inhibitors by high throughput screening” (PLoS ONE, 2019).
# Among all 110,000 compounds or so, about 230 (0.21%) showed an effect of 50% or more. Some of the results follow.
# Molecular target: DPAP1 (Plasmodium falciparum, UniProt Q8IIJ9)
# Experiment: primary screen, percent inhibition; read by cleavage of a fluorogenic dipeptide substrate; higher = more effect of the substance
# Set-up: species or system P. falciparum D10 trophozoite lysates; single well
# 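Note: 30 min substrate incubation versus DMSO and 10 µM JCP410 controls.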
# DPAP1, sequence (Q8IIJ9 whole entry, looked up): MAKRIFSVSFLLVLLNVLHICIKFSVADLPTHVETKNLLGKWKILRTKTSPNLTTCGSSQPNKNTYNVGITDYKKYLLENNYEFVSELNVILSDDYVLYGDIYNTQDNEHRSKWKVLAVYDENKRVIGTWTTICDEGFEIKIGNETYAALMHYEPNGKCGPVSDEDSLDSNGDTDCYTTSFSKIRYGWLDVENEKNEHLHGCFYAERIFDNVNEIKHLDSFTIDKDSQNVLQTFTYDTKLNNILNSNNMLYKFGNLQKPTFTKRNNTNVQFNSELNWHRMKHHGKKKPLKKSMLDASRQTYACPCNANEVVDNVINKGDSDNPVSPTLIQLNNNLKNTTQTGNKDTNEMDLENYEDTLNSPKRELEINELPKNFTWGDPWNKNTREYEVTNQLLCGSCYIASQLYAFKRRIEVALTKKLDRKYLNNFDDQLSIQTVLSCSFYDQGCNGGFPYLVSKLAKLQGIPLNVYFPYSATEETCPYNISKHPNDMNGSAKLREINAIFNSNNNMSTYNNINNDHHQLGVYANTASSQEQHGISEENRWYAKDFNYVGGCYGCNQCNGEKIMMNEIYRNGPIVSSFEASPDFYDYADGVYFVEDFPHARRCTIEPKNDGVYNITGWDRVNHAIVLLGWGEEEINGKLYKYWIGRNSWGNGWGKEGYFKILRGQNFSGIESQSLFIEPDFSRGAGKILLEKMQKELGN
row,SMILES,% Inhibition @ 10 uM [%]
1,CCCOc1ccc(C2CC(=O)NC3=C2C(=O)CCC3)cc1 (centres unmarked),0.559
2,Cc1ccccc1-c1nc2cc(NC(=O)c3cccc4ccccc34)ccc2o1,-4.21
3,COc1ccc(CNS(=O)(=O)c2ccc(Cl)s2)cc1,-1.96
4,CC(NC(=O)CN(C)S(=O)(=O)c1ccc(Br)s1)c1ccccc1 (centres unmarked),4.07
5,COc1ccc(Oc2nc3c(c(=O)n(C)c(=O)n3C)n2C)cc1,3.86
6,Cc1nn(Cc2ccccc2Cl)c(C)c1NC(=O)c1cc(-c2ccc(O)cc2)on1,7.44
7,COc1cccc(COC(=O)c2ccc(-n3nnnc3Cc3cccc(OC)c3)cc2)c1,2.77
8,N#Cc1c(N)nc2c(c1-c1ccco1)CCCC2,-3.58
9,CCOC(=O)C1=CN(Cc2ccc(F)cc2)C=C(C(=O)OCC)C1c1ccc(O)c(OCC)c1,0.219
10,O=C(NCc1ccccc1Cl)C1C2C=CC3(CN(Cc4ccccc4Cl)C(=O)C13)O2 (centres unmarked),4.06
11,CNC(=O)Cn1cc(S(=O)(=O)Cc2ccccc2Cl)c2ccccc21,-6.36
12,CCCCOCC(O)Cn1c(C)nc2ccccc21 (centres unmarked),-3.39
13,O=C1CC(c2ccccc2)CC(=O)C1=CNc1cccc2ccccc12 (centres unmarked),2.38
14,Clc1ccccc1C1CC(c2ccco2)n2ncnc2N1 (centres unmarked),-2.67
15,CCN1CCCC1CNC(=O)C1CCCN(S(=O)(=O)c2cccc3nsnc23)C1 (centres unmarked),-2.29
16,COCCn1c(CCC(=O)NCc2ccc(OC)cc2)nc2cccnc21,2.57
17,CC(C)CNC(=O)c1ccc2snnc2c1,-0.0235
18,CNc1oc(/C=C/c2cccs2)nc1C#N,0.00706
19,Cc1onc(-c2ccccc2Cl)c1C(=O)Nc1ccc(Cl)cc1,-0.351
20,CCN1CCN(Cc2ccc(OC)c(C)c2C)CC1,6.33
21,O=C(NCc1ccco1)c1cnc2ccccn2c1=O,-1.66
22,COc1cc(/C=c2\sc3nc(-c4ccccc4C)nn3c2=O)cc(OC)c1OC,-3.21
23,Cc1nn(CCCC(=O)NCc2cccnc2)c(=O)c2cc3sccc3n12,3.2
24,Fc1ccc(-c2ccc(-c3nn4c(-c5ccccc5)nnc4s3)o2)cc1,-1.69
25,NC(=O)COc1cc(=O)oc2ccc([N+](=O)[O-])cc12,-3.58

row,SMILES,% Inhibition @ 10 uM [%]
1,COC(=O)C1=C(C)N=C(C)/C(=C(/O)OC)C1c1ccc(O)cc1 (centres unmarked),-0.436
2,CCn1cc(C(=O)N2CC3CC(C2)c2cccc(=O)n2C3)c(=O)c2ccc(C)nc21 (centres unmarked),-4.99
3,CN(C)CCN(C)Cc1ccc(N(C)C)cc1,2.94
4,O=S(=O)(c1ccc(Cl)cc1)N1CCN(Cc2ccccc2)CC1,4.54
5,COc1ccc(-c2nc(N)sc2C)cc1,2.46
6,CCCCc1nnc2sc(NC(=O)CCC)nn12,-4.69
7,CN(C)c1ccc(NC(=O)c2scc3c2CCCC3)cc1,-5.27
8,O=C(CN1C(=O)c2cccc3cccc(c23)C1=O)Nc1c(Cl)cccc1Cl,-3.84
9,CCCCNC(=O)CSCc1nc(-c2ccc(C)cc2)oc1C,-1.27
10,CCOC(=O)c1sc(NC(=O)C(CC)Sc2nnc3c(n2)[nH]c2ccccc23)nc1C (centres unmarked),0.408
11,Cc1nc(C23CC4CC(CC(C4)C2)C3)c[nH]1,-5.62
12,NC1=NC(Cl)=NC2C1N=CN2Cc1ccccc1 (centres unmarked),1.67
13,Nc1ccc(S(=O)(=O)Nc2nccc(/C=C/c3cccc(F)c3)n2)cc1,0.889
14,COc1cccc2c1cc1c(=O)n(CC(=O)NC3CCN(Cc4ccccc4)CC3)nc(C)n12,-1.7
15,COc1ccccc1CNC1CCSC1 (centres unmarked),5.03
16,COc1ccccc1NS(=O)(=O)c1ccc(Oc2ccccc2C)cc1,-1.17
17,CCOc1cccc(C(=O)Nc2cccc(-c3nc4ncccc4o3)c2)c1,8.59
18,Nc1nc2nc(-c3ccccc3)cc(O)n2n1,-0.13
19,Cc1nn(-c2ccccc2)c(Cl)c1C1CC(=O)Nc2c1ccc1ccccc21 (centres unmarked),-6.35
20,CC(C)(C)NCc1cc(Br)ccc1OCc1cccs1,2.06
21,Cn1c(SCc2nc(-c3ccc(Cl)cc3)no2)nc2ccccc21,-2.63
22,N#Cc1ccccc1CN1C(=O)S/C(=C/c2ccc(O)cc2)C1=O,10.2
23,O=C(OC1CCCCC1)C(C(=O)OC1CCCCC1)c1nc2ccccc2s1,-0.0813
24,OC[C@H]1O[C@@H](Nc2ccccc2)[C@@H](O)[C@@H](O)[C@@H]1O,0.565
25,O=C(NC(=O)c1ccc(C(F)(F)F)cc1)OCCN1C(=O)c2ccccc2C1=O,-2.63
